Structures can show the parent of a compound that is named as a salt. This is one part of the list. Most values come without repeats; read them as rough.
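Note: monoclonal Beas-2B line stably carrying CMV promoter-driven AQP5-HiBiT, 5,000 cells per well in 384-well plates, lytic HiBiT plus LgBiT NanoLuc luminescence, FDA-approved drug library screen.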

The test system of the test is Beas-2B AQP5-HiBiT reporter cells. Briefly: AQP5-HiBiT luminescence relative to vehicle (ratio to vehicle); higher = higher AQP5-HiBiT protein abundance. The following applies: 10 µM; 18 h.
Take `CN(C)/N=N/c1[nH]cnc1C(N)=O` [Dacarbazine]: the AQP5-HiBiT luminescence came out at 0.976.

For `Cc1nc(-c2ccc(OCC(C)C)c(C#N)c2)sc1C(=O)O` [Febuxostat], the AQP5-HiBiT luminescence was 0.386.

In the case of `COc1ccc(CC(C)NCC(O)c2ccc(O)c(NC=O)c2)cc1` (stereo not given) [Formoterol Hemifumarate], the AQP5-HiBiT luminescence was 0.936.

For the compound `CO[C@H]1C(=O)[C@]2(C)[C@@H](OC)C[C@H]3OC[C@@]3(OC(C)=O)[C@H]2[C@H](OC(=O)c2ccccc2)[C@]2(O)C[C@H](OC(=O)[C@H](O)[C@@H](NC(=O)OC(C)(C)C)c3ccccc3)C(C)=C1C2(C)C` [Cabazitaxel], the AQP5-HiBiT luminescence was 1.62.

Regarding `Nc1nc(O)c2ncn(CCC(CO)CO)c2n1` [Penciclovir], the AQP5-HiBiT luminescence turned out to be 1.01.

On to `CN1CCCC(n2nc(Cc3ccc(Cl)cc3)c3ccccc3c2=O)CC1` (stereo not given) [Azelastine hydrochloride], for which the AQP5-HiBiT luminescence came to 1.17.

For the compound `CN1CCC(=C2c3ccccc3CCc3cccnc32)CC1` [Azatadine Maleate], the AQP5-HiBiT luminescence turned out to be 1.09.

On to `CCC1=C(C)CN(C(=O)NCCc2ccc(S(=O)(=O)NC(=O)N[C@H]3CC[C@H](C)CC3)cc2)C1=O` [Glimepiride], for which the AQP5-HiBiT luminescence was 0.834.

For `O=C1[C@H](CC[C@H](O)c2ccc(F)cc2)[C@@H](c2ccc(O)cc2)N1c1ccc(F)cc1` [Ezetimibe], the AQP5-HiBiT luminescence came to 0.803.

Regarding `C[C@H](CS)C(=O)N1CCC[C@H]1C(=O)O` [Captopril], the AQP5-HiBiT luminescence is 0.994.

In the case of `CN1C(C(=O)Nc2ccccn2)=C(O)c2ccccc2S1(=O)=O` [Piroxicam], the AQP5-HiBiT luminescence was 0.684.

Regarding `COc1ccc2cc(CCC(C)=O)ccc2c1` [Nabumetone], the AQP5-HiBiT luminescence was found to be 0.784.

For `Nc1nnc(-c2cccc(Cl)c2Cl)c(N)n1` [Lamotrigine], the AQP5-HiBiT luminescence amounted to 1.33.

Regarding `NCC[C@H](O)C(=O)N[C@@H]1C[C@H](N)[C@@H](O[C@H]2O[C@H](CN)[C@@H](O)[C@H](O)[C@H]2O)[C@H](O)[C@H]1O[C@H]1O[C@H](CO)[C@@H](O)[C@H](N)[C@H]1O` [Amikacin], the AQP5-HiBiT luminescence turned out to be 1.1.

As to `COCCCOc1cc(C[C@@H](C[C@H](N)[C@@H](O)C[C@H](C(=O)NCC(C)(C)C(N)=O)C(C)C)C(C)C)ccc1OC` [Aliskiren hemifumarate], the AQP5-HiBiT luminescence amounted to 0.93.

Consider `Nc1nc(Cl)nc2c1ncn2[C@@H]1O[C@H](CO)[C@@H](O)[C@@H]1F` [Clofarabine], for which the AQP5-HiBiT luminescence worked out at 0.622.

Consider `CCOC(=O)C1=C(COCCN)NC(C)=C(C(=O)OC)C1c1ccccc1Cl` (stereo not given) [Amlodipine Besylate], for which the AQP5-HiBiT luminescence stood at 1.35.

Turning to `CN(C)C(=N)NC(=N)N` [Metformin hydrochloride], the AQP5-HiBiT luminescence came to 0.748.

For `CCOc1nc2cccc(C(=O)O)c2n1Cc1ccc(-c2ccccc2-c2nnn[nH]2)cc1` [Candesartan], the AQP5-HiBiT luminescence worked out at 0.988.

On to `CN(C)CCOc1ccc(/C(=C(/CCCl)c2ccccc2)c2ccccc2)cc1` [Toremifene citrate], for which the AQP5-HiBiT luminescence came out at 1.17.

Turning to `CCCCN1CCCCC1C(=O)Nc1c(C)cccc1C` (stereo not given) [Bupivacaine hydrochloride], the AQP5-HiBiT luminescence came out at 1.04.

Turning to `COC(c1ccccc1)(c1ccccc1)[C@H](Oc1nc(C)cc(C)n1)C(=O)O` [Ambrisentan], the AQP5-HiBiT luminescence came to 0.752.

As for `OC(CNCC(O)C1CCc2cc(F)ccc2O1)C1CCc2cc(F)ccc2O1` (stereo not given) [Nebivolol hydrochloride], the AQP5-HiBiT luminescence came to 1.16.

In the case of `C[N+](C)(C)CC(O)CC(=O)[O-]` (stereo not drawn) [L(-)-Carnitine], the AQP5-HiBiT luminescence stood at 0.908.

`COc1ccccc1OCCNCC(O)COc1cccc2[nH]c3ccccc3c12` (stereo not given) [Carvedilol]: the AQP5-HiBiT luminescence stood at 1.2.

Regarding `CCCCCCCCCCCCC[N+](C)(C)Cc1ccccc1` [Benzalkonium chloride], the AQP5-HiBiT luminescence was 0.604.

On to `O=S(=O)(O)CCS` [Mesna], for which the AQP5-HiBiT luminescence was found to be 0.891.

In the case of `CCOC(=O)[C@H](CCc1ccccc1)N[C@H]1CCc2ccccc2N(CC(=O)O)C1=O` [Benazepril hydrochloride], the AQP5-HiBiT luminescence was found to be 0.778.

As for `CCc1cc2c(cc1N1CCC(N3CCOCC3)CC1)C(C)(C)c1[nH]c3cc(C#N)ccc3c1C2=O` [Alectinib], the AQP5-HiBiT luminescence was 0.411.

With `CC1(C)S[C@@H]2[C@H](NC(=O)Cc3ccccc3)C(=O)N2[C@H]1C(=O)O` [Penicillin G sodium salt], the AQP5-HiBiT luminescence was determined as 0.825.

With `CN1CCN2c3ncccc3Cc3ccccc3C2C1` (stereo not given) [Mirtazapine], the AQP5-HiBiT luminescence is 0.96.

As to `O=P(O)(O)C(O)(Cc1cccnc1)P(=O)(O)O` [Risedronate Sodium], the AQP5-HiBiT luminescence worked out at 1.22.

For `COc1cc2nc(N3CCN(C(=O)C4CCCO4)CC3)nc(N)c2cc1OC` (stereo not given) [Terazosin hydrochloride], the AQP5-HiBiT luminescence is 1.39.

Consider `CC(=O)NS(=O)(=O)c1ccc(N)cc1` [Sulfacetamide sodium], for which the AQP5-HiBiT luminescence is 0.888.

Take `CCC[C@@H]1C[C@@H](C(=O)N[C@@H]([C@H]2O[C@H](SC)[C@H](O)[C@@H](O)[C@H]2O)[C@@H](C)O)N(C)C1` [Lincomycin hydrochloride]: the AQP5-HiBiT luminescence came out at 0.98.

For `CC1=Nc2ccc(Cl)cc2S(=O)(=O)N1` [Diazoxide], the AQP5-HiBiT luminescence is 0.846.

With `CN1CCN(C2=Nc3cc(Cl)ccc3Nc3ccccc32)CC1` [Clozapine], the AQP5-HiBiT luminescence was 2.07.

With `CC[N+](CC)(CC)CCOc1cccc(OCC[N+](CC)(CC)CC)c1OCC[N+](CC)(CC)CC` [Gallamine triethiodide], the AQP5-HiBiT luminescence turned out to be 1.43.

On to `CN(C)CCN(Cc1ccccc1)c1ccccn1` [Tripelennamine hydrochloride], for which the AQP5-HiBiT luminescence amounted to 1.12.

As to `CCN(CC)CCOC(=O)c1ccc(N)cc1` [Procaine hydrochloride], the AQP5-HiBiT luminescence came to 0.727.

(Values after the supplement of paper PMC8821664.)
